From US20130101595A1 (AbbVie / Abbott, published 2013)

Columns and labels:
[1] = molecular target: T1, recombinant human IL-18 (rhIL-18) (human, UniProt Q14116 37-193, biotinylated (D-biotinyl-epsilon-aminocaproic acid NHS ester, 2:1 molar ratio of biotin to rhIL-18) in the BIAcore assay; not said to be biotinylated in the KG-1 assay); assay: cell-based or functional assay
[2] = molecular target: T1, recombinant human IL-18 (rhIL-18); assay: SPR (BIAcore), biotinylated rhIL-18 on streptavidin chip, antibody in solution
Procedure: Real-time binding interactions between ligand (biotinylated recombinant human IL-18 (rhIL-18) immobilized on a biosensor matrix) and analyte (antibodies in solution) were measured by surface plasmon resonance (SPR) using the BIAcore system (Pharmacia Biosensor, Piscataway, N.J.). The system utilizes the optical properties of SPR to detect alterations in protein concentrations within a dextran biosensor matrix. Proteins are covalently bound to the dextran matrix at known concentrations. Antibodies are injected through the dextran matrix and specific binding between injected antibodies and immobilized ligand results in an increased matrix protein concentration and resultant change in the SPR signal.
Biotinylated rhIL-18 to be immobilized on the matrix via streptavidin was diluted in PBS running buffer (Gibco Cat. No. 14190-144, Gibco BRL, Grand Island, N.Y.) supplemented with 0.05% (BIAcore) surfactant P20 (Pharmacia BR-1000-54, Pharmacia Biosensor, Piscataway, N.J.). To determine the capacity of rhIL-18-specific antibodies to bind immobilized rhIL-18, a binding assay was conducted as follows. Aliquots of biotinylated rhIL-18 (25 nM; 10 μl aliquots) were injected through the streptavidin-coupled dextran matrix at a flow rate of 5 μl/min. Before injection of the protein and immediately afterward, PBS buffer alone flowed through each flow cell. The net difference in signal between baseline and approximately 30 sec. after completion of biotinylated rhIL-18 injection was taken to represent the binding value. Direct rhIL-18-specific antibody binding to immobilized biotinylated rhIL-18 was measured. Antibodies (20 μg/ml) were diluted in PBS running buffer and 25 μl aliquots were injected through the immobilized protein matrices at a flow rate of 5 μl/min. Prior to injection of antibody, and immediately afterwards, PBS buffer alone flowed through each flow cell. The net difference in baseline signal and signal after completion of antibody injection was taken to represent the binding value of the particular sample. […]

B1: LT28 (parent) (scFv, V domains shown)
VH: [about 100 residues not printed]DDDDYDFDYWGRGTMVTVSS
VL: QSVLTQPPSASGTPGQRVTISCSGSSSNIGINAVNWYQQLPGTAPKLLIYGNDQRPSGVPDRFSGSKSGTSASLAISGLQSEDEADYYCAAWDDSLSGPVFGGGTKLTVLG
notes: Tested as single-chain Fv; also called single-chain anti-IL-18 antibody LT28
[1]
  IC50 Value, KG-1 cell-based IL-18 neutralization assay (hIFN-gamma): 0.09 µM
[2]
  Kd: 0.039 µM
  koff: 0.00048 s⁻¹
  kon: 13000 M⁻¹ s⁻¹
